Test results published in PubChem BioAssay (NCI).
Values joined by “and” are separate entries in the source; they are usually repeats but may differ in a detail not shown here. Equal values may be shown once.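 Dose response: 5 concentrations. Exposure: 48 h. Format: 96-well plates. Endpoint: linear interpolation; highest concentration if not reached. GI50: concentration for 50% inhibition of growth. TGI: total growth inhibition.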

Test system: NCI-H322M lung
Assay: NCI anticancer screen, dose series, 48 h

CCCCCCSc1nc(N)nc2nc[nH]c12 and CC(=O)OCC1OC(n2cnc3nc(Br)[nH]c(=O)c32)C(OC(C)=O)C1OC(C)=O (stereo unspecified) cannot be ordered by TGI: greater than 100 µM for the first, greater than 100 µM for the second.

COc1ccccc1NC(=S)N=Nc1c(O)[nH]c2ccccc12 and O=c1cc(-c2ccccc2)[nH]c2ncccc12 cannot be ordered by TGI: greater than 100 µM for the first, greater than 100 µM for the second.

COc1ccc(-c2cc(/C=C3\C(=O)Nc4cc(Cl)ccc43)[nH]n2)cc1 and COc1ccc(/C=C/C(=O)c2c(O)ccc3c(C)c(C(=O)O)oc23)cc1 cannot be ordered by TGI: greater than 100 µM for the first, greater than 100 µM for the second.

COC1=C[C@]2(CCC(=O)O2)[C@@H]2Cc3ccccc3[C@H](O)[C@@H]2C1=O and COC(=O)[C@H](CC(C)C)NC(=O)[C@H](Cc1ccccc1)N1CC2C=CC1C2 (stereo partly specified) cannot be ordered by TGI: greater than 100 µM for the first, greater than 100 µM for the second.

First: COC(=O)c1c(O)ccc2c1c1cc3ccccc3cc1n2Cc1cc(OC)cc(OC)c1
Second: COC(=O)c1ccc2nc(-c3cc4ccccc4n3C)n(CCCCOc3cc4c(cc3OC)C(=O)N3CCC[C@H]3C=N4)c2c1
The TGI of the first is higher: greater than 100 µM for the first, 7.98 µM for the second.

Compared with O=C1C=C(Nc2ccccc2C(=O)CC(=O)C(=O)Nc2ccc(Cl)cc2)c2ccccc2C1=O, O=C(NC(=S)Nc1ccc([N+](=O)[O-])cc1)c1ccc2c(c1)Sc1ccccc1O2 is higher in TGI: 28.7 µM for the first, greater than 100 µM for the second.

Compared with Cc1cc2c(c(C(=O)NCC(=O)N[C@@H](C)C(=O)OCc3ccccc3)c1)Oc1c(cc(C)cc1C(=O)NCC(=O)N[C@@H](C)C(=O)OCc1ccccc1)S2, COc1cc2c(cc1OC)C(C#N)N(C(=O)c1ccccc1)C=C2OC(=O)c1ccccc1 (stereo unspecified) is lower in TGI: greater than 100 µM for the first, 61 µM for the second.

CC1CCCC(C(=O)CC2CC(=O)NC(=O)C2)C1=O (stereo unspecified) and CC1=C/C=C/C(=O)O[C@@H]([C@H](C)[C@H](O)[C@@H](C)NC(=O)C(C)C)[C@H](C)/C=C/C(C)=C/[C@H]2C=CCC[C@@]2(C)\C=C\1 cannot be ordered by TGI: greater than 100 µM for the first, greater than 42.3 µM for the second.

Compared with COc1cc(OC)cc(Oc2cnc3cc(N)cc(N)c3n2)c1, Cc1cc2cc3cc(C)c(N)cc3nc2cc1N is 51-fold lower in TGI: 92.7 µM for the first, 1.82 µM for the second.

Going from COc1cc2c3c(n(CCCN(CCCN(CCCn4c5c(c6ccccc6c4=O)C(=O)c4ccccc4-5)C(=O)OC(C)(C)C)C(=O)OC(C)(C)C)c(=O)c2cc1OC)-c1cc2c(cc1C3=O)OCO2 to COc1ccc(Nc2nc3cc(C(F)(F)F)ccc3nc2-c2ccccc2)cc1OC, the TGI rises from 91.1 µM to greater than 100 µM.

O[C@@H]1C[C@H](Cl)c2c(Cl)sc(Cl)c21 and CC(C)(C)N/N=C(\C(=O)Nc1cccc(Cl)c1)C1C(=O)Nc2ccccc2S1=O (stereo unspecified) cannot be ordered by TGI: greater than 100 µM for the first, greater than 100 µM for the second.

COC1/C=C/C=C(/C)Cc2cc(O)c(Cl)c(c2)N(C)C(=O)CC(OC(=O)C(C)C)C2(C)OC2C(C)C2CC1(O)NC(=O)O2 (stereo unspecified) and Cc1c(C(=O)O)n2c(=S)[nH]nc2c2ccccc12 cannot be ordered by TGI: greater than 100 µM for the first, greater than 100 µM for the second.

With CCOC(=O)/C=C/C(=O)O/C=C/[N+](=O)[O-] the TGI was greater than 100 µM.

Compared with COc1ccc(-c2cc(/C=C3\C(=O)Nc4cc(Cl)ccc43)[nH]n2)cc1, COc1ccc(/C=C/C(=O)c2c(O)ccc3c(C)c(C(=O)O)oc23)cc1 is 5.4-fold higher in GI50: 8.39 µM for the first, 45.6 µM for the second.

Going from COc1cc(OC)cc(Oc2cnc3cc(N)cc(N)c3n2)c1 to COC(=O)c1ccc2nc(-c3cc4ccccc4n3C)n(CCCCOc3cc4c(cc3OC)C(=O)N3CCC[C@H]3C=N4)c2c1, the GI50 falls from 22.8 µM to 1.9 µM (12-fold).

In the case of COc1cc2c3c(n(CCCN(CCCN(CCCn4c5c(c6ccccc6c4=O)C(=O)c4ccccc4-5)C(=O)OC(C)(C)C)C(=O)OC(C)(C)C)c(=O)c2cc1OC)-c1cc2c(cc1C3=O)OCO2, the GI50 is reported as 0.119 µM.

CC1=C/C=C/C(=O)O[C@@H]([C@H](C)[C@H](O)[C@@H](C)NC(=O)C(C)C)[C@H](C)/C=C/C(C)=C/[C@H]2C=CCC[C@@]2(C)\C=C\1 was tested, and the GI50 was 1.03 µM and 4.72 µM.
